Laboratory results from article PMC6050124 (Biochemistry, 2018).

What follows are binders tested against EntF (Escherichia coli, UniProt P11454 1-1293) (assay: ATP-PPi exchange assay).

Kd [nM] | Binder
186 ± 69 | YbdZ (wild type), individually purified (natural protein, Escherichia coli, UniProt P18393 1-72, looked up) MAFSNPFDDPQGAFYILRNAQGQFSLWPQQCVLPAGWDIVCQPQSQASCQQWLEAHWRTLTPTNFTQLQEAQ
270 ± 88 | YbdZ A55S (natural protein, Escherichia coli, UniProt P18393 1-72, looked up) MAFSNPFDDPQGAFYILRNAQGQFSLWPQQCVLPAGWDIVCQPQSQASCQQWLESHWRTLTPTNFTQLQEAQ
555 ± 150 | YbdZ D8A (natural protein, Escherichia coli, UniProt P18393 1-72, looked up) MAFSNPFADPQGAFYILRNAQGQFSLWPQQCVLPAGWDIVCQPQSQASCQQWLEAHWRTLTPTNFTQLQEAQ
109 ± 27 | YbdZ I16A, individually purified (natural protein, Escherichia coli, UniProt P18393 1-72, looked up) MAFSNPFDDPQGAFYALRNAQGQFSLWPQQCVLPAGWDIVCQPQSQASCQQWLEAHWRTLTPTNFTQLQEAQ
295 ± 88 | YbdZ L17A (natural protein, Escherichia coli, UniProt P18393 1-72, looked up) MAFSNPFDDPQGAFYIARNAQGQFSLWPQQCVLPAGWDIVCQPQSQASCQQWLEAHWRTLTPTNFTQLQEAQ
213 ± 100 | YbdZ L53A (natural protein, Escherichia coli, UniProt P18393 1-72, looked up) MAFSNPFDDPQGAFYILRNAQGQFSLWPQQCVLPAGWDIVCQPQSQASCQQWAEAHWRTLTPTNFTQLQEAQ
229 ± 85 | YbdZ P62A (natural protein, Escherichia coli, UniProt P18393 1-72, looked up) MAFSNPFDDPQGAFYILRNAQGQFSLWPQQCVLPAGWDIVCQPQSQASCQQWLEAHWRTLTATNFTQLQEAQ
374 ± 130 | YbdZ Q69A (natural protein, Escherichia coli, UniProt P18393 1-72, looked up) MAFSNPFDDPQGAFYILRNAQGQFSLWPQQCVLPAGWDIVCQPQSQASCQQWLEAHWRTLTPTNFTQLAEAQ
41 ± 10 | YbdZ S48A (natural protein, Escherichia coli, UniProt P18393 1-72, looked up) MAFSNPFDDPQGAFYILRNAQGQFSLWPQQCVLPAGWDIVCQPQSQAACQQWLEAHWRTLTPTNFTQLQEAQ
636 ± 78 | YbdZ W27A (natural protein, Escherichia coli, UniProt P18393 1-72, looked up) MAFSNPFDDPQGAFYILRNAQGQFSLAPQQCVLPAGWDIVCQPQSQASCQQWLEAHWRTLTPTNFTQLQEAQ
1180 ± 338 | YbdZ W37A (natural protein, Escherichia coli, UniProt P18393 1-72, looked up) MAFSNPFDDPQGAFYILRNAQGQFSLWPQQCVLPAGADIVCQPQSQASCQQWLEAHWRTLTPTNFTQLQEAQ
